Experimental data from the supplement of paper PMC11417369.
This is one part of the list.

These sequences were tested on PfAP2-HC AP2 domain (GST-tagged) (assay: gcPBM binding intensity (ln(normalized median fluorescence intensity)); higher = stronger DNA binding).
How it was run: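 Plasmodium falciparum DNA-binding domains carrying a GST tag were expressed in E. coli and applied for 1 h, at about 25 μg on average, to an Agilent 4 × 180k array. The array held primer-extended double-stranded 36-bp intergenic genomic probes together with negative controls, and binding took place in 1× PBS with 1% milk, 0.2 mg/ml BSA, 0.5% salmon testes DNA and 0.03% Triton X-100. An Alexa488 anti-GST antibody detected bound protein, and the array was scanned at 488 nm. Binding intensity is taken as the highest Masliner-normalised natural-log median intensity across replicate spots of either probe orientation.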
For TATATATATATATGAGTGCATATGTGTAATATAAAA, the “gcPBM binding intensity (ln)” value was 9.81.
With “TATATAATTATTTGATGTACACTACAATGTATTTGT [XGTACX_site7991]” the “gcPBM binding intensity (ln)” value was 9.82.
For “TTATGTTCTTAATGCACACTTATAAGTATCTTATAA [CACACA_site1394]”, the “gcPBM binding intensity (ln)” value was 9.67.
“AATACAATATAAAGGTGTACATATATATATATATAT [XGTACX_site68]” was tested, and the “gcPBM binding intensity (ln)” value was 10.7.
With “ATGTAGATAGATAGGGTGCTAAAAATAAGATTTATA [GTGCAC_site9602]” the “gcPBM binding intensity (ln)” value was 9.62.
“AAAAAAAAAAAAAAAACACACACAACACCCATACCT [CACACA_site9208]” was tested, and the “gcPBM binding intensity (ln)” value was 10.4.
“TATTTTTATATATGACGTACTCTACAATTATTAATG [XGTACX_site5818]” was tested, and the “gcPBM binding intensity (ln)” value was 9.6.
“TTTTTTTTTTTTGATGCACACACCTGAACGAGTTAA [CACACA_site317]” was tested, and the “gcPBM binding intensity (ln)” value was 9.85.
With “AAAATATGTATGTAAAGTACTAATATACAAATTTTT [XGTACX_site5186]” the “gcPBM binding intensity (ln)” value was 9.62.
With “ATCATTTTTAAAGGAACACACAAAAAAAATTAGAAT [CACACA_site1370]” the “gcPBM binding intensity (ln)” value was 9.78.
In the case of “GTTCAAAATATGAACACACACATATAGATTTATATA [CACACA_site7054]”, the “gcPBM binding intensity (ln)” value is reported as 9.96.
In the case of “AAAGGATATAGACACACACACACATATATATATATA [CACACA_site2200]”, the “gcPBM binding intensity (ln)” value is reported as 11.4.
For “TGAAAAGTAAAATACACACACATAATATAATTTATA [CACACA_site1989]”, the “gcPBM binding intensity (ln)” value was 10.2.
In the case of “CATATACATCCACATACACACATACACCCATACACA [CACACA_site5038]”, the “gcPBM binding intensity (ln)” value is reported as 10.4.
For “ATTATTTTTTTTGTTACACACATGACTTATTTTTAT [CACACA_site3228]”, the “gcPBM binding intensity (ln)” value was 10.
“ATATAAATATTCCACACACACACAAAAAAAAAAAAA [CACACA_site7678]” was tested, and the “gcPBM binding intensity (ln)” value was 11.
In the case of “TTAATTATAAGAAAAAGTACTCATTACATTATAGAA [XGTACX_site678]”, the “gcPBM binding intensity (ln)” value is reported as 9.46.
For “TAGTCGTTTTTTTAATGTACTCACGCATAATATAAT [XGTACX_site6499]”, the “gcPBM binding intensity (ln)” value was 9.56.
“CATACATACCTATATACACACATATAAAATAATATA [CACACA_site7290]” was tested, and the “gcPBM binding intensity (ln)” value was 9.85.
With “AGTATACAGATATATACACACATATTTATATTTATA [CACACA_site6394]” the “gcPBM binding intensity (ln)” value was 9.88.
“GGCAACATTTGAAACACACACACATACAAACAAACA [CACACA_site3307]” was tested, and the “gcPBM binding intensity (ln)” value was 10.3.
“TGTTATTATTTGTACACACACATATATATCCTTGTT [CACACA_site3616]” was tested, and the “gcPBM binding intensity (ln)” value was 10.8.
“TCTATATGTTGATTCACACATAAAGAATAAATAAAA [CACACA_site6017]” was tested, and the “gcPBM binding intensity (ln)” value was 9.57.
For “AACACGCGCAGACACACACACACACCCACATATATA [CACACA_site2205]”, the “gcPBM binding intensity (ln)” value was 10.6.
“TATAATATATTATATACACACATTATGAAATCCACA [CACACA_site1330]” was tested, and the “gcPBM binding intensity (ln)” value was 9.92.
“TATATGAACTTATATACACACCATTTTTGTAAATCT [CACACA_site4547]” was tested, and the “gcPBM binding intensity (ln)” value was 9.72.
With “ATAAATATATTTTATAGTACATAAATATCAAAAAAA [XGTACX_site2334]” the “gcPBM binding intensity (ln)” value was 9.56.
With “AAACAATACTGATATTGTACATAATAAAAAAAAATA [XGTACX_site3330]” the “gcPBM binding intensity (ln)” value was 10.
For ATTTTGATGCATGGGTTGCACTAACTTTTGCCCAGA, the “gcPBM binding intensity (ln)” value was 9.51.
In the case of “TACTATATAAGTAAGGCATGCATGCCGATTTTTTTA [TGCATGCA_site100]”, the “gcPBM binding intensity (ln)” value is reported as 9.49.
With “TTCTTTAATACTTATTGTACAATATAATAATCACAA [XGTACX_site6364]” the “gcPBM binding intensity (ln)” value was 9.7.
In the case of “AAAAAAAAAAAAATATGTACTTATTTTTATGTTAAA [XGTACX_site8802]”, the “gcPBM binding intensity (ln)” value is reported as 9.28.
“TACTTAAAATATTTAACAAATAAATAAATAAATAAA [XGTACX_negctrl_site523]” was tested, and the “gcPBM binding intensity (ln)” value was 9.17.
With “TGAAACCGTTACATGTGTACATATGTTACACATAAT [XGTACX_site7250]” the “gcPBM binding intensity (ln)” value was 9.7.
“TCACATCTTATATACTGTACATTTCGAATATAAATT [XGTACX_site2508]” was tested, and the “gcPBM binding intensity (ln)” value was 9.68.
For “TTTCTTTTACATATTTGTACATATATAAATTTATAT [XGTACX_site1787]”, the “gcPBM binding intensity (ln)” value was 9.91.
“ATATTTTTATTTTCTTTACACACCACATAATTTTTT [CACACA_site4060]” was tested, and the “gcPBM binding intensity (ln)” value was 10.1.
With “TCTAACAACATGCGCACACACATGAATATTCATATT [CACACA_site1540]” the “gcPBM binding intensity (ln)” value was 10.4.
In the case of “ATTAGATATGTAAACTAAAATTATATTCATGATAAT [TGCATGCA_negctrl_site182]”, the “gcPBM binding intensity (ln)” value is reported as 9.68.
For “CAAGGAACCGGACACACACACATAAATGTATTTATA [CACACA_site4574]”, the “gcPBM binding intensity (ln)” value was 10.2.
“CATTATCATGTTTTTTGTACTCATAATAAAAAGCAG [XGTACX_site2056]” was tested, and the “gcPBM binding intensity (ln)” value was 9.27.
In the case of “ATTTACAAAAGGAAAGTGCAAACATGTGATTAAACA [CACACA_negctrl_site714]”, the “gcPBM binding intensity (ln)” value is reported as 9.7.
With “TATATATAGAAACACACACACACCAAAGCGTAGCGC [CACACA_site62]” the “gcPBM binding intensity (ln)” value was 10.5.
“AATAATTGTTAAAGTTGTACTATACGTATATAAGAA [XGTACX_site1432]” was tested, and the “gcPBM binding intensity (ln)” value was 9.85.
In the case of “AAAAATGAATTATTTTGTACATATATATATATATAT [XGTACX_site3410]”, the “gcPBM binding intensity (ln)” value is reported as 9.74.
For “GCCAAAAGGATATGCACACACACACCCATATATATA [CACACA_site2198]”, the “gcPBM binding intensity (ln)” value was 10.6.
For “ATTTTAATTACATATACACACAAAGGTTCATAACAA [CACACA_site9008]”, the “gcPBM binding intensity (ln)” value was 9.67.
In the case of “TAATTTAAACAAAAAAGTACAAATTTCTTTTTATTA [XGTACX_site5244]”, the “gcPBM binding intensity (ln)” value is reported as 9.3.
With “TACTCATAATATTGATAATTAAAAAGATAAACTATT [XGTACX_negctrl_site299]” the “gcPBM binding intensity (ln)” value was 9.43.
For “ATTATTTTATTATAGTGTACTTTTTTAATCAAAGGA [XGTACX_site8921]”, the “gcPBM binding intensity (ln)” value was 9.44.
In the case of “AATTTTATTACTTTTACACACCTATATATTATTCAT [CACACA_site3273]”, the “gcPBM binding intensity (ln)” value is reported as 10.1.
In the case of “TTTTAAAAAAAATATAAAAAAAGAGGAGGGATGGTA [GTGCAC_negctrl_site35]”, the “gcPBM binding intensity (ln)” value is reported as 9.75.
In the case of TATGTTTTTACGTGTGTGCACTTTGTAGAGATAAGT, the “gcPBM binding intensity (ln)” value is reported as 9.85.
With “AACTTATTTAAATTCACACATATATAAAATACTTAT [CACACA_site4394]” the “gcPBM binding intensity (ln)” value was 9.62.
In the case of “GATAACATAATATGTTGTACATAAAAATTTTTATCA [XGTACX_site1969]”, the “gcPBM binding intensity (ln)” value is reported as 9.62.
“ATCAATTTAATTTATTGTACTTGTTTGTTTTTTTAT [XGTACX_site7544]” was tested, and the “gcPBM binding intensity (ln)” value was 9.81.
In the case of “ATAAAGATATGACACACACACATATTATAGATATAT [CACACA_site7434]”, the “gcPBM binding intensity (ln)” value is reported as 10.4.
